In PubChem BioAssay AID686978 (National Center for Advancing Translational Sciences (NCATS), 2013):
Out of some 420,000 compounds screened, about 64,000 (15%) were called active. This list was built around the results that the source calls inconclusive (neither active nor inactive); the mix of calls is not that of the screen. The call rests on the fitted dose curve; in most records, active means well fitted inhibition curve with a large enough effect; inconclusive means small, poorly fitted or top-dose-only effect; inactive means flat fitted curve, though single readings scatter. Potencies of inconclusive entries are left out as doubtful fits.

experiment: qHTS for Inhibitors of human tyrosyl-DNA phosphodiesterase 1 (TDP1): qHTS in cells in absence of CPT; settings: DT40 Tdp1-/- hTDP1 cells, no CPT, ATP luminescence, 48 h; activity change, negative = growth inhibition: at 46.2 µM (top of the series) unless noted; further: nearly all actives have a fitted effect of over 55% in size
Procedure, shortened: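 DT40 Tdp1-/-;hTDP1 cells, no CPT (DMSO vehicle only), 400 cells/well; compounds pin-transferred; ≥48 hr, 37 °C; CellTiter-Glo 30 min RT dark, luminescence read.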
On the % scale 0 is the no-effect control and ±100 the full control effect; potency means the concentration at half of the fitted maximal effect; tags describe the fitted curve by direction and shape.

Compound | Potency | activity change, negative = growth inhibition
CC(C)=C1SC(N2CCN(c3ccc(C)cc3)CC2)=NC1=O | inconclusive [inhibitor, single point] | –
Cc1ccc(C)n1-c1ccc(C(=O)NC2CCN(Cc3ccccc3)CC2)cc1 | active: 20.6 µM | –
COc1cc([N+](=O)[O-])cc(/C=N/N(CCC#N)C(C)=O)c1O | – | inconclusive: -34.6% [inhibitor]
O=C(C[C@@H]1C/C=C\C[C@H](NC(=O)OCC2c3ccccc3-c3ccccc32)C(=O)OC[C@@H]2CCCN2C1=O)N[C@H](CO)Cc1ccccc1 | active: 10.3 µM | –
CC(C)(C)OC(=O)[C@H](Cc1ccccc1)NC(=O)c1nc[nH]c1C(=O)N[C@@H](Cc1ccccc1)C(=O)OC(C)(C)C | active: 18.4 µM | –
O=C(OCc1ccccc1Cl)C1CC(=O)N(Cc2ccco2)C1 (configuration not stated) | – | inactive: 0.597%
Cc1ccc(CSCCNC(=O)c2ccc(N(C)S(=O)(=O)c3ccccc3)cc2)cc1 | active: 14.6 µM | –
Cc1ccc(SCC(=O)NC(=O)c2ccc(S(=O)(=O)N(C)C)cc2)cc1C | inconclusive [inhibitor, single point] | –
CC[C@]12c3[nH]c4ccccc4c3CCN1C(=O)C(CC(=O)NCC13CC4CC(CC(C4)C1)C3)C[C@@H]2C(=O)N1CCN(C(=O)c2ccco2)CC1 (some centres not stated) | inconclusive [inhibitor, single point] | –
CCOc1ccc(CCNC(=O)COC(=O)C2CC2)cc1OCC | – | inactive: 4.41%
CCCNC(=O)c1oc2ccc3c(c2c1C)C(O)CC(C)(C)O3 (configuration not stated) | – | inactive: 6%
COC(=O)C[C@H]1CC[C@H](NC(=O)c2cccc(F)c2)[C@@H](CO)O1 | – | inactive: 16.8%
CCCC[C@H]1COCCS(=O)(=O)N1Cc1ccccc1F | inconclusive [inhibitor, single point] | –
OC[C@@H]1CN(Cc2ccc(Cl)cc2)C[C@H](n2cnc3c(N4CCCC4)ncnc32)O1 | inconclusive [inhibitor, single point] | –
C[C@]12C=CC(=O)C=C1CC[C@@H]1C2[C@@H](O)C[C@@]2(C)C1CC[C@]2(O)C(=O)COC(=O)CCC(=O)O (some centres not stated) | – | inactive: -5.29%
C[C@H](CO)N1C[C@H](C)[C@@H](CN(C)Cc2ccc3c(c2)OCO3)Oc2c(NC(=O)C3CC3)cccc2C1=O | inconclusive [inhibitor, single point] | –
Cc1ccc2nc(NC(=O)C3CSC4(C)CCC(=O)N34)sc2c1 (configuration not stated) | inconclusive [inhibitor, single point] | –
CCN(CC)Cc1c(O)ccc2c(=O)c(Oc3ccccc3OC)c(C)oc12 | – | inactive: 0.193%
Cc1cccn2c(=O)c3cc(C#N)c(=N)n(CCN4CCOCC4)c3nc12 | – | inactive: 1.23%
COCCNCc1cc(C)n(-c2cc(S(=O)(=O)N3CCOCC3)ccc2N2CCCC2)c1C | inconclusive [inhibitor, single point] | –
COc1ccc(CN(Cc2ccccc2)C(=O)c2ccc(NC(C)=O)cc2)cc1COc1ccc(NC(C)=O)cc1 | inconclusive [inhibitor, single point] | –

Compound | Potency | activity change, negative = growth inhibition
COCCCN(C(=O)c1ccco1)c1nc(-c2cc(OC)ccc2OC)cs1 | inconclusive [inhibitor, single point] | –
Cc1cccc(-n2c(CCN3C(=O)c4ccccc4C3=O)nc3ccccc3c2=O)n1 | inconclusive [inhibitor, single point] | –
COc1cc(C(=O)Nc2nc3c(s2)Cc2c(Br)ccc(OC)c2-3)cc(OC)c1OC | active: 14.6 µM | –
COC(=O)c1cc(OC)c(OC)cc1NC(=O)c1ccccc1C | – | inactive: 12.3%
CC(=O)c1ccc(N2CCN(C(=O)c3ccc(OCc4c(C)noc4C)cc3)CC2)cc1 | inconclusive [inhibitor, single point] | –
CCC(Sc1nc2ccccc2c2nc(CCc3c(C)n[nH]c3C)nn12)C(=O)Nc1ccc(OC)cc1 (configuration not stated) | inconclusive [inhibitor, single point] | –
Cc1ccc(OCC(=O)Oc2c(C)cccc2C)cc1 | – | inactive: -5.23%
Cc1nn2c(COc3ccc(NC(=O)c4ccccc4Cl)cc3)nnc2c2ccccc12 | active: 23.1 µM | –
CCOc1ccccc1NC(=O)C1CCCN1S(=O)(=O)c1ccccc1C(F)(F)F (configuration not stated) | active: 20.6 µM | –
CCN(CC)S(=O)(=O)c1cccc(C(=O)Nc2cc(C)cc(C)c2)c1 | inconclusive [inhibitor, partial curve] | –
Cn1ccc2c(N3CCCC3)cc3c(c21)C1CCC3O1 (configuration not stated) | inconclusive [inhibitor, single point] | –
Cc1cc(Br)cn2c(Cc3ccsc3)c(-c3ccc(C#N)cc3)nc12 | inconclusive [inhibitor, single point] | –
Cc1ccc(C(=O)OCC(=O)N2CC(C)CC(C)C2)cc1S(=O)(=O)N1CCCCC1 (configuration not stated) | inconclusive [inhibitor, single point] | –
COc1ccc2[nH]c3c(c2c1)CCN1C(=O)C(CC(=O)NCCc2ccccn2)C[C@H](C(=O)N2CCOCC2)[C@@]31CCC1CCCC1 (some centres not stated) | inconclusive [inhibitor, single point] | –
COc1cccc(N2CCN(S(=O)(=O)c3ccc4c(c3)NC(=O)C(C)C(=O)N4)CC2)c1 (configuration not stated) | – | inactive: 9.11%
CCCCC(c1nnnn1C1CCCC1)N1CCN(C(=O)c2ccco2)CC1 (configuration not stated) | inconclusive [inhibitor, single point] | –
CC(C)c1ccc(/C=C/c2[nH]c(=O)[nH]c(=O)c2[N+](=O)[O-])cc1 | inconclusive [inhibitor, single point] | –
CNC(=O)c1ccsc1NC(=O)CCS(=O)(=O)c1ccc(F)cc1 | inconclusive [inhibitor, single point] | –
COc1ccc(-n2c(C)nc3c(cnn3-c3ccc(C)c(C)c3)c2=O)cc1 | active: 14.6 µM | –
CC(=O)Oc1c(C)c(=O)n(C)c2ccccc12 | – | inactive: -1.59%
COc1cc(NC(=O)c2cc(OC)c(OC)c(OC)c2)c(OC)cc1NC(=O)CN1CCCCC1 | inconclusive [inhibitor, single point] | –
